Test results reported in patent US10017542B2, “Antimicrobial peptides and methods of use thereof” (priority 2015, dated 2018).

Tested on: Porphyromonas gingivalis strains A7436 and HG405
Experiment: In vitro bactericidal activity screening, endpoint titration
Settings: last concentration giving greater than two-logs reduction in CFU vs. saline control

Sequence	Two-log Reduction Concentration (P. gingivalis A7436)	Two-log Reduction Concentration (P. gingivalis HG405)
FAFAFKAFKKAFKKFKKAFKKAFGPGRFAKKFAKKFKKFAKKFAKFAFAF [RP-433]	0.16 μM	0.36 μM
FARKFLKKFKRFAKKFVRFAFAF [SEQ ID NO: 6]	1.88 μM	2.50 μM
